Test results taken from PubChem BioAssay AID1508623 (National Center for Advancing Translational Sciences (NCATS), 2021).
The campaign covered roughly 48,000 compounds. About 450 (0.94%) were called active. About 19% were inconclusive and are not listed. Calls come from the whole dose curve; as a rule, active = well fitted inhibition curve with a large enough effect; inconclusive = small, poorly fitted or top-dose-only effect; inactive = no such curve, though single readings can be large or run the other way. The list shows a part of the results.

Assay: Primary qHTS for Identification of Small Molecule Inhibitors of Huntingtin Promoter Activity; note: nearly all actives have a fitted effect of over 50% in size
Details: HEK293 HTT promoter firefly luciferase reporter (activity 0% = vehicle and -100% = no light), 24 h; series mostly up to 57.5 µM; activity change, negative = inhibition: at the top concentration
How it was run: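 Firefly luciferase signal from promoter-reporter HEK293 cells was scaled between vehicle (0%) and zero RLU (-100%). Compounds were tested at final concentrations of up to 57.5 uM over 24 h at 37 degrees C. PTC124 at 50 uM final served as control inhibitor.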

Activity change, negative = inhibition, inactive:
CCOc1ccc(C2CC(=O)Nc3cc4c(cc32)OCO4)cc1OC (configuration not stated) -31.4%
CCOC(=O)c1c(S(=O)(=O)N2CCCC(C(=O)Nc3ccccn3)C2)c(C)n(C)c1C (configuration not stated) -2.51%
CC(=O)N1CCc2c(sc3c2c(=O)n(-c2ccc(C)cc2)c(=O)n3Cc2c(F)cccc2Cl)C1 -19.3%
Cc1ccc(CNC(=O)C2CCN(S(=O)(=O)c3ccc(F)cc3)CC2)cc1 -19.2%
COc1ccccc1CNC(=O)c1cccn1-c1nnc(N2CCCCC2)s1 -18.2%
COC(=O)c1c(NC(=O)Cc2coc3cc(C)ccc23)sc2c1CCCC2 -16.6%
CCCOc1cccc(C2c3c(oc4ccccc4c3=O)C(=O)N2c2nncs2)c1 (configuration not stated) -7.99%
Cc1ccc2cccc(NC(=O)COc3ccccc3Cl)c2n1 -4.85%
Cc1ccc(C)c(Cn2c(CCCNC(=O)C3CCCCC3)nc3ccccc32)c1 -27.5%
Cc1nc(-c2cccc(NC(=O)Nc3ccccc3C(F)(F)F)c2)no1 -7.53%
CCc1ccc(-n2c(=O)c3sc4ccccc4c3n(CC(=O)N3CCCC3)c2=O)cc1 -9.81%
O=C(CSc1nc2ccsc2c(=O)n1Cc1ccccc1Cl)NCc1ccc(F)cc1 -24.9%
CCc1ccc(NC(=O)CCCc2nnc3n(CC(C)C)c(=O)c4sccc4n23)cc1 -25.9%
O=C(Nc1c2c(nn1-c1ccc(Cl)cc1)CS(=O)(=O)C2)c1cccc(F)c1 -24.1%
COC(=O)c1ccc(C2c3c(-c4ccccc4O)n[nH]c3C(=O)N2Cc2ccncc2)cc1 (configuration not stated) -8.39%
CC(C)c1nn2c(=O)cc(COC(=O)c3ccccc3NC(=O)COc3ccccc3)nc2s1 -10.7%
Cc1nnc(NC(=O)CSc2nccn2Cc2ccc(F)cc2)s1 -11.7%
CC(=O)Nc1ccc(S(=O)(=O)NCCc2cn3ccsc3n2)cc1 -20.8%
CCC(=O)N1CCc2cc(OC)c(OC)cc2C1COc1ccccc1OC (configuration not stated) -14.6%
Cc1nnc(NC(=O)c2nc(SCc3ccccc3F)ncc2Cl)s1 -11.2%
O=C(NCc1ccccc1)C(=O)Nc1ccc2nc3n(c(=O)c2c1)CCCCC3 -24.1%
COc1nc(C)cnc1NS(=O)(=O)c1cccnc1-c1ccc(-c2nnco2)cc1 8.72%
CCc1cc(C(=O)NCc2ccccc2)no1 42.1%
Cc1ccc(CN2COc3ccc4c(-c5ccccc5)cc(=O)oc4c3C2)cc1 -12.4%
NC(=O)c1ncn([C@@H]2O[C@H](CO)[C@@H](O)[C@@H]2O)c1O -7.02%
Cc1cc(C)nc(-n2nc(C)c3c2N(C)C(=O)CC3c2ccc(Cl)cc2)n1 (configuration not stated) -11%
Cc1c(C(=O)Nc2cccc(Cl)c2)oc2ccc(S(=O)(=O)N3CCCCCC3)cc12 -24.9%
Cc1cc(-c2ccc(S(=O)(=O)Nc3ccccc3F)s2)on1 -35.4%
O=C(CN1C(=O)COc2ccc(S(=O)(=O)NC3CCCC3)cc21)Nc1ccc(Cl)cc1 -0.0219%
CCOC(=O)c1[nH]c(C)c(C(=O)NC(CC)Cc2ccccc2)c1C (configuration not stated) -24.5%
O=C(Nc1cccc(-c2cn3cccnc3n2)c1)c1cc(Br)ccc1Cl -13.1%
Cc1ccc(C)c(NC(=O)Cn2c(=O)n(CC3CCCO3)c(=O)c3ccccc32)c1 (configuration not stated) -10.6%
CCN1CCN(c2ncnc3c2cnn3-c2ccc(C)c(C)c2)CC1 -8.96%
CC(=O)Nc1ccc(NC(=O)CSc2nc3ccccc3nc2N2CCCCC2)cc1 -6.74%
Cn1c(-n2cccc2)c(-c2c(-c3ccccc3)[nH]c3c2c(=O)[nH]c(=O)n3C)c(=O)[nH]c1=O -7.94%
Cc1ccc2c(c1)N(CC(=O)NCCc1ccc(Cl)cc1)C(=O)c1cccnc1O2 -23%
COc1cccc(CNC(=O)c2ccc3c(c2)nc2n3CCOC2)c1 0.687%
Cc1ccc(-c2nnn3c2nc(NCC(C)c2ccccc2)c2ccccc23)cc1 (configuration not stated) 32.4%
Cc1oc(=O)oc1CN1CCN(c2cc3c(cc2F)c(=O)c(C(=O)O)c2n3C(C)S2)CC1 (configuration not stated)
CCN(Cc1ccccc1)C(=O)CN1C(=O)COc2ccc(S(=O)(=O)NC3CCCC3)cc21 -11.7%
CCOc1ccc(CNC(=O)c2ccc(CS(=O)Cc3ccc(Cl)cc3)o2)cc1 (configuration not stated) -4.44%
CCc1ccc2oc(C(=O)Nc3sc4c(c3C(=O)NC)CCCC4)cc(=O)c2c1 -1.3%
CCOc1ccc(C(=O)Nc2cccc(OCc3cc(=O)n4cc(C)sc4n3)c2)cc1 9.89%
O=C(Nc1ccc(Cl)cc1F)c1cc(S(=O)(=O)NCc2ccc3c(c2)OCO3)ccc1F -19%
CN(C)CCn1c2c(c(SCC(=O)Nc3ccc(F)cc3F)nc1=O)CCC2 -15.2%
O=C(NCCc1ccccc1)c1ccc(CSc2nc3ccncc3n2Cc2ccc(F)cc2)cc1 -26.3%
CCCCn1cc(S(=O)(=O)c2cccc(C)c2)c(=O)c2cc(F)c(N3CCOCC3)cc21 -11.6%
Cc1ccccc1OC(=O)CSc1nnc(-c2cccs2)o1 -2.28%
CCOC(=O)c1c(S(=O)(=O)N2CCCC(C(=O)N3CCN(c4ccccc4)CC3)C2)c(C)n(C)c1C (configuration not stated) -19.8%
COc1ccc(-c2nc3ccccc3o2)cc1NC(=O)COc1ccc(C(C)(C)C)cc1 9.3%
O=[N+]([O-])c1ccc(C(c2sc3nc(-c4ccco4)nn3c2O)N2CCN(c3cccc(Cl)c3)CC2)cc1 (configuration not stated) -17%
CCOC(=O)c1cc2c(=O)n3ccccc3nc2n(CC2CCCO2)c1=NC(=O)c1ccc(C)cc1 (configuration not stated) -18.7%
CCc1cccc(NC(=O)Cn2nc(-c3cc(C)ccc3C)ccc2=O)c1 -14%
N=C(N=C(N)N)N1CCOCC1 -1.06%
CC(Oc1ccccc1Cl)C(=O)N1CCN(CCc2ccccn2)CC1 (configuration not stated) -12.8%
O=C(CN1C(=O)COc2ccc(S(=O)(=O)N3CCOCC3)cc21)N1CCN(c2ccc(F)cc2)CC1 -6.98%
CC(Sc1nc(=O)cc(N)n1CCc1ccccc1)C(=O)Nc1ccccc1C#N (configuration not stated) 16.1%
COc1ccc(OC)c(NC(=O)CN2C(=O)CCc3cc(S(=O)(=O)N4CCCCC4)ccc32)c1 -22.9%
O=C(NC1CCCCC1)c1ccc2c(c1)N(Cc1ccc(Cl)cc1)C(=O)c1ccccc1S2(=O)=O -10.4%
CC(=O)N1c2c(cc(Br)cc2S(=O)(=O)N2CCN(c3cccc(Cl)c3)CC2)CC1C (configuration not stated) -12.8%
CC(=O)c1cccc(NS(=O)(=O)c2ccc3c(c2)NC(=O)CC(=O)N3)c1 -12.9%
Cc1ccc(Cl)cc1NC(=O)Cn1c(=O)n(Cc2ccc(C(=O)NCc3ccc4c(c3)OCO4)cc2)c(=O)c2ccccc21 -12.4%
